According to PubChem BioAssay AID1347165 (National Center for Advancing Translational Sciences (NCATS), 2019):
Out of some 220,000 compounds screened, about 5,700 (2.6%) were called active. Inconclusive results, whose numbers are uncertain, are shown with a selection of clear calls. The call rests on the fitted dose curve; in most records, active means well fitted inhibition curve with a large enough effect; inconclusive means small, poorly fitted or top-dose-only effect; inactive means no such curve, though single readings can be large or run the other way. Where the call is inconclusive, the potency comes from a doubtful curve fit.

biological target: Lysine-specific demethylase 5B (Homo sapiens) (UniProt Q9UGL1); assay: Primary screen for KDM5B Histone Demethylases FDH-coupled qHTS; conditions: FDH-coupled NADH fluorescence (FDH is formaldehyde dehydrogenase); activity change, negative = inhibition: at 57.7 µM (top of the series) unless noted; further: nearly all actives have a fitted effect of over 70% in size; on activity change, negative = inhibition: 0% is about no effect
How it was run: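 Inhibition is measured as reduced NADH fluorescence generation from FDH coupling to formaldehyde release. Truncated KDM5BΔAP at 200 nM final acts on H3K4me3 peptide (12.5 µM in substrate mix) in pH 7.5 HEPES buffer with Tween-20, 30 min, room temperature.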
Potency means the concentration at half of the fitted maximal effect; tags describe the fitted curve by direction and shape.

UniProt Q9UGL1, sequence (Q9UGL1 whole entry, looked up, the tested form may be a part): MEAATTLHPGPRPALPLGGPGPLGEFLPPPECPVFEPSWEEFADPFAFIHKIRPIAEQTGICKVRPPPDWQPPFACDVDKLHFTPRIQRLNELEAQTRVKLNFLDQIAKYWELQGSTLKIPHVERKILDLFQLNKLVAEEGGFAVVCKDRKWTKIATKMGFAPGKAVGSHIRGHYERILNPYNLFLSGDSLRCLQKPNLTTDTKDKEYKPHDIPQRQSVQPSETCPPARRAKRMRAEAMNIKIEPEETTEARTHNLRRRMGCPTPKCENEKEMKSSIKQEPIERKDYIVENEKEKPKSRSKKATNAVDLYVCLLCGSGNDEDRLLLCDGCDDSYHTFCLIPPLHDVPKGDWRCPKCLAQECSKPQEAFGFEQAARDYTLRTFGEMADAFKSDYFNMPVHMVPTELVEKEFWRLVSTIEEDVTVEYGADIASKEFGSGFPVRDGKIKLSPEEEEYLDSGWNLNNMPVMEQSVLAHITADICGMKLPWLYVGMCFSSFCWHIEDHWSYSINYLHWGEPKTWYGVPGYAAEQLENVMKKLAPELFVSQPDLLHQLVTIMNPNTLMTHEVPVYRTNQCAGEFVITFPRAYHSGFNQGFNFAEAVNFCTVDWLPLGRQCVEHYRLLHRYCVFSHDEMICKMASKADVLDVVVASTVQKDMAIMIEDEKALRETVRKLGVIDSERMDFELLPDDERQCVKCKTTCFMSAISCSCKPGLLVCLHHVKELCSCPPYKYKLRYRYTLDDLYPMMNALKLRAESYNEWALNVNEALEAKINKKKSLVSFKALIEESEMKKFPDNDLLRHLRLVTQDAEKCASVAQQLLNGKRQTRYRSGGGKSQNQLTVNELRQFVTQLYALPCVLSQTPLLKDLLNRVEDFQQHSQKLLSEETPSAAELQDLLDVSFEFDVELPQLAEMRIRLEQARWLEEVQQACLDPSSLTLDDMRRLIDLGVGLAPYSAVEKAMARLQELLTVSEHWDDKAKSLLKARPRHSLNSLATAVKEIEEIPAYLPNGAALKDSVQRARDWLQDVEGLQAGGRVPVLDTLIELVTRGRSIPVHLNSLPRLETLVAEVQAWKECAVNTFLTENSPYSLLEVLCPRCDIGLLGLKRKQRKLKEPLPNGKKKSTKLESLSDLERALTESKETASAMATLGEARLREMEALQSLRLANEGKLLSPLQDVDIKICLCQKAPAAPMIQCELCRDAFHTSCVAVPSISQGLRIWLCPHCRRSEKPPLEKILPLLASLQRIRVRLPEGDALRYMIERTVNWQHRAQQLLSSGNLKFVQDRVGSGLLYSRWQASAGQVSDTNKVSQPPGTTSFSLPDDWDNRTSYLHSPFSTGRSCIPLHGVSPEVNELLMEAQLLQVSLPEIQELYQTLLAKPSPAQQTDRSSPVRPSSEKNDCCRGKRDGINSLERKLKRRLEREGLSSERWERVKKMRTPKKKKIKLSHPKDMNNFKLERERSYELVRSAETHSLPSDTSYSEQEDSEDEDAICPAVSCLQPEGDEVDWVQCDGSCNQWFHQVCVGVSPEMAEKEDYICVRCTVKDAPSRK

Row | SMILES | Potency | activity change, negative = inhibition
1 | CCOC(=O)N1CCc2c(sc(NCc3sccc3C)c2C(=O)Nc2cc(Cl)ccc2OC)C1 | inconclusive: 39.8 µM [inhibitor, single point] | 
2 | CCN(C)C(=O)CCc1c(C)nn(-c2cccc(C)c2)c1Oc1ccc(F)cc1F | active: 31.6 µM | 
3 | CCCn1c(Cn2ccnc2C)nc2cc(NC(=O)COc3ccc(OC)cc3)ccc21 | inactive | 
4 | COc1cccc(CNC(=O)CCC2CCN(S(=O)(=O)c3ccc(C)cc3)CC2)c1 | inactive | 
5 | CCS(=O)(=O)c1oc(-c2ccc(F)cc2)nc1S(=O)(=O)c1ccc(Br)cc1 | inconclusive: 5.01 µM [inhibitor, partial curve, poor fit] | 
6 | Cc1cc(CNC(=O)c2cc(-c3ccc(CO)cc3)cc3c2OCCN3C)no1 | active: 31.6 µM | 
7 | COc1ccccc1CC(=O)N1CCc2c(nc3cc[nH]n3c2=O)C1 | active: 28.2 µM | 
8 | Cc1ccc(NC(=O)Cn2c(-c3nonc3N)nc3ccccc32)cc1C | inconclusive: 39.8 µM [inhibitor, single point] | 
9 | Cc1[nH]c2ccccc2c1C(=O)C(=O)NCC1CCN(C)CC1 | inactive | 
10 | COCC1CN(C(C)=O)CC12CCN(Cc1ccc(Br)o1)CC2 (stereo not given) | inconclusive: 22.4 µM [inhibitor, single point] | 
11 | COc1ccc(-c2nc(Nc3ccccc3)c3ccccc3n2)cc1 | inconclusive: 35.5 µM [inhibitor, partial curve, poor fit] | 
12 | CCOC(=O)c1c(C)[nH]c(C)c1S(=O)(=O)N1CCCC(C(=O)Nc2cccc(C)n2)C1 (stereo not given) | inconclusive: 3.16 µM [inhibitor, partial curve, poor fit] | 
13 | Cc1nc2ccccc2c(C)c1CC(=O)NCc1ccc(OCC(F)(F)F)cc1 | inactive | 
14 | COc1ccc(CNC(=O)CSC2=NC3(CCCCC3)N=C2c2cccs2)cc1 | inconclusive: 39.8 µM [inhibitor, single point] | 
15 | CN1CCNc2nc(COc3ccc(Oc4ccccc4)cc3)n(Cc3ccccc3)c2C1=O | inactive | 
16 | COc1ncccc1CN1CCC2(CC1)OC(=O)N(Cc1ccc(O)cc1)C2(C)c1ccccc1 (stereo not given) | inactive | 
17 | CCOc1ccc(S(=O)(=O)Nc2ccc(-c3cn4ccc(C)nc4n3)cc2)cc1 | inactive | 
18 | COC(=O)c1ccc2nc(C[C@@H]3C[C@@H](C(C)C)[C@H](CNC4CCCCC4)C=C3C)[nH]c2c1 | inconclusive: 25.1 µM [inhibitor, partial curve, poor fit] | 
19 | COc1cc(OC)cc(C(=O)Nc2ccc3c(c2)OCCO3)c1 |  | inconclusive: -30.4% [inhibitor]
20 | Cc1noc(C)c1-c1cc2cc(CN(C)C)oc2c(NCc2cccc(F)c2)n1 | inactive | 
21 | COc1ccc(CNC(=O)C(C)Cl)cc1 (stereo not given) | inactive | 
22 | COc1ccc2nc3n(c2c1)[C@@H](CNCc1ccc(C(=O)O)cc1)COC3 | inconclusive: 22.4 µM [inhibitor, single point] | 
23 | O=S(=O)(Nc1cccc(F)c1)c1ccc2[nH]c3c(c2c1)CCCCC3 | inconclusive: 14.1 µM [inhibitor, partial curve, poor fit] | 
24 | CCN(CC)S(=O)(=O)c1ccc(NS(=O)(=O)c2ccccc2)cc1 | inactive | 

Row | SMILES | Potency | activity change, negative = inhibition
25 | CCN1c2cc(C(=O)Nc3ccc(Br)c(C)c3)ccc2C(=O)N2CCCC21 (stereo not given) | inconclusive: 22.4 µM [inhibitor, partial curve, poor fit] | 
26 | COc1ccc(CNC(=O)c2cc3cc(C)ccc3[nH]2)cc1 | inconclusive: 17.8 µM [inhibitor, partial curve, poor fit] | 
27 | COc1cccc(-c2cc(-c3c(C)noc3C)c3cncn3c2)c1OC | inactive | 
28 | COc1ccc(CNC(=O)C(C)Sc2nc3cc(Cl)ccc3n2C)cc1 (stereo not given) | inactive | 
29 | COc1ccc(C(=O)CC(=O)C(=O)Nc2c(C)cccc2C)cc1 | inconclusive: 17.8 µM [inhibitor, partial curve, poor fit] | 
30 | CC(C)c1cnc2c(c1SCC(=O)O)c(=O)n(C)c(=O)n2C | inconclusive: 28.2 µM [inhibitor, partial curve, poor fit] | 
31 | C#CCNC(=O)c1nc(-c2ccccc2)c2ccccn12 | active: 31.6 µM | 
32 | O=C(c1ccccc1)N1CCC[C@H]1c1nc(-c2ccc(F)cc2)no1 | inactive | 
33 | COc1ccc(-c2noc(CNC(=O)CCc3c(C)c4ccc(OC)cc4oc3=O)n2)cc1 | inconclusive: 0.891 µM [inhibitor, full curve, poor fit] | 
34 | CC1=C[C@@H](CN)[C@H](C(C)C)C[C@H]1Cc1nc2ccc(Cl)cc2[nH]1 | inactive | 
35 | O=C(/C=C/c1ccc(-c2ccc(Cl)cc2Cl)o1)c1ccccc1 | inconclusive: 35.5 µM [inhibitor, partial curve, poor fit] | 
36 | Cc1nn2c(c1-c1ccccc1Oc1ccccc1)N(Cc1ccc(C(=O)O)cc1)CCC2 | active: 35.5 µM | 
37 | COc1ccc2c(c1)CCCN2C1CNC1 | active: 126 µM | 
38 | COc1ccc(OC)c(CNC(=O)c2noc(-c3ccc(C)cc3)n2)c1 | inactive | 
39 | COCC(=O)N[C@H]1C[C@@H](CO)N(Cc2scnc2C)C1 | inconclusive: 39.8 µM [inhibitor, partial curve, poor fit] | 
40 | COCCOc1cc(-c2noc([C@@H]3CCCN3C3CCN(C(C)=O)CC3)n2)ccn1 | inactive | 
41 | COc1ccccc1-c1nc(S(=O)(=O)c2ccccc2)c(N2CCC(C)CC2)o1 | inconclusive: 39.8 µM [inhibitor, single point] | 
42 | COc1ccccc1CCC(=O)N[C@@H]1CN(c2ncccn2)C[C@H]1CO | active: 17.8 µM | 
43 | COc1ccc2oc(=O)c(/C(C)=N/O)cc2c1 | inconclusive: 39.8 µM [inhibitor, single point] | 
44 | COc1cccc(-c2nc(SCc3ccc(C)cc3)n3[nH]c(=O)cc3n2)c1 | inactive | 
45 | O=[N+]([O-])c1ccc(S(=O)(=O)N2CCn3cccc3C2c2ccccc2F)cc1 (stereo not given) | inconclusive: 31.6 µM [inhibitor, partial curve, poor fit] | 
46 | CC(C)n1cc(-c2cc(C(=O)N(C)Cc3cccnc3)c3cc(F)ccc3n2)cn1 | active: 25.1 µM | 
47 | O=C(c1cc(-c2cccnc2)c2nncn2n1)N1CCOCC1 | active: 89.1 µM | 
48 | CNCC(=O)N1CCCC(N2CCN(Cc3ccc4c(c3)OCO4)CC2)C1 (stereo not given) | inconclusive: 22.4 µM [inhibitor, partial curve, poor fit] | 

Row | SMILES | Potency | activity change, negative = inhibition
49 | COc1ccc(Br)cc1CNC(=O)CCC(=O)N1CCSc2nc(C)cc(C)c21 | inactive | 
50 | COc1cccc(/C=C/c2nc3ccccc3s2)c1OC(F)F | inconclusive: 1.78 µM [inhibitor, partial curve, poor fit] | 
51 | CCn1c2c(c(=O)n1Cc1ccccc1)CCN(C(=O)c1ncccn1)C2 | inactive | 
52 | Cn1cc(CN[C@H]2C[C@H]3C(=O)NC[C@@H](CCC(=O)N4CCc5ccccc54)N3C2)c2ccccc21 | inconclusive: 15.8 µM [inhibitor, partial curve] | 
53 | CC[C@H]1CN(C(C)=O)CC[C@H]1CC(=O)Nc1nccs1 | inconclusive: 35.5 µM [inhibitor, partial curve, poor fit] | 
54 | COc1ccc(C(=O)/C=C/c2cccs2)c(OC(=O)c2ccccc2)c1 | inconclusive: 25.1 µM [inhibitor, partial curve, poor fit] | 
55 | CCOC(=O)C(=O)Nc1nnc2n1CCS2 | inconclusive: 25.1 µM [inhibitor, partial curve, poor fit] | 
56 | O=C1Cc2c(-c3ccccc3Oc3ccccc3)n[nH]c2CN1CCc1ccncc1 | inconclusive: 50.1 µM [inhibitor, partial curve, poor fit] | 
57 | CCOc1ccc(Nc2ncnc3c2cnn3-c2ccc(F)cc2)cc1 | inconclusive: 39.8 µM [inhibitor, single point] | 
58 | COc1ccc(C(=O)CC2(O)C(=O)Nc3ccc(F)cc32)cc1 (stereo not given) | inactive | 
59 | C#CCNC(=O)[C@H]1C[C@@H](O)[C@H](O)[C@@H]2N=C(Nc3cccc4ccccc34)S[C@@H]21 | active: 8.91 µM | 
60 | CCOC(=O)COn1c(=O)c(-c2ccc(OCC)cc2)[n+]([O-])c2ccccc21 | inactive | 
61 | N#Cc1nc(-c2cccc3ccccc23)oc1NCCCn1ccnc1 | inconclusive: 10 µM [inhibitor, partial curve, poor fit] | 
62 | CC1=NN(C(=O)Cc2ccc([N+](=O)[O-])cc2)C(O)(C(F)(F)C(F)(F)F)C1 (stereo not given) | inconclusive: 31.6 µM [inhibitor, single point] | 
63 | COCCNC(=O)C(=O)N1CCN(c2nc(CC(C)C)c3c(c2C#N)CCCC3)CC1 | inconclusive: 22.4 µM [inhibitor, partial curve, poor fit] | 
64 | CN(C)C[C@@H]1CN(C)C[C@H]1NC(=O)NCc1ccc(OC(F)(F)F)cc1 | inconclusive: 14.1 µM [inhibitor, partial curve] | 
65 | CC(C)n1nc(C(=O)Nc2ccc3ccccc3n2)c2ccccc2c1=O | inactive | 
66 | CCOc1ccc(NC(=O)CSc2nnc(-c3ccncc3)n2-c2ccccc2)cc1 | inactive | 
67 | O=c1c(C(F)(F)F)cccn1Cc1coc(-c2cccc(F)c2)n1 | inactive | 
68 | O=c1cc(CSc2nnc(NC3CC3)s2)c2ccc(O)cc2o1 | inconclusive: 39.8 µM [inhibitor, single point] | 
69 | CCc1cccc(NC(=O)CSc2ncc3c(n2)-c2ccccc2N(CC)S3(=O)=O)c1 | inconclusive: 1.78 µM [inhibitor, partial curve, poor fit] | 
70 | NC1=C(O)C(=O)C(c2ccccc2)O1 (stereo not given) | inconclusive: 35.5 µM [inhibitor, partial curve, poor fit] | 
